Reference: paper PMC12497685, “Anticoronavirus Isoquinoline Alkaloids: Unraveling the Secrets of Their Structure–Activity Relationship” (Influenza and Other Respiratory Viruses, 2025)

Test system: HCoV‐229E
Type: cell-based

Row | Compound | activity against HCoV‐229E infection (in words)
1 | COc1cc2c(cc1O)[C@@H]1Cc3cc4c(cc3[C@H](C2)N1C)OCO4 [Compound 34, (−)‐caryachine] | inactive
2 | COc1ccc2c(c1OC)[C@@H]1Cc3cc4c(cc3[C@H](C2)N1C)OCO4 [Compound 36, O‐methylneocarychine] | inactive
3 | COc1ccc2cc3n(c(=O)c2c1OC)CCc1cc2c(cc1-3)OCO2 [Compound 22, 8‐oxoberberine] | no activity
4 | COc1cc2c(cc1OC)C1Cc3ccc(OC)c(O)c3C(C2)N1C (stereo not drawn) [Compound 24, (−)‐platycerine] | inactive
5 | COc1cc2c(cc1OC)C1Cc3cc(OC)c(OC)cc3[C@H](C2)N1C [Compound 23, argemonine] | inactive
6 | O[C@@H]1Cc2cc3c(cc2[C@@H]2NCc4c(ccc5c4OCO5)[C@H]12)OCO3 [Compound 48, norchelidonine] | effectively protected all surviving cells from infection
7 | CO[C@@H]1C=C[C@@]23c4cc5c(cc4CN(C[C@@H]2O)[C@H]3C1)OCO5 [Compound 3, (+)‐haemanthamine] | effectively protected all surviving cells from infection
8 | (−)‐O‐methylcaryachine [Compound 35] | inactive
